# The supplement of paper PMC11417369
# ± gives the standard deviation of the averaged measurements. Some of the results follow.
# System: PfAP2-LT AP2 domain (GST-tagged)
# Assay: gcPBM binding intensity (ln(normalized median fluorescence intensity)); higher = stronger DNA binding
# In short: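 GST-fused DNA-binding domains of P. falciparum, expressed in E. coli, were applied at about 25 μg on average for 1 h to an Agilent 4 × 180k array of primer-extended double-stranded 36-bp intergenic genomic probes and negative controls. Binding intensity is the highest Masliner-normalised natural-log median intensity across replicate spots of either probe orientation, measured with Alexa488 anti-GST antibody and a 488 nm scan.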
row,Sequence,gcPBM binding intensity (ln)
1,AGTATACGAATAAAATGTACATACAAATTGTTGTAA [XGTACX_site36],8.94 ± 0.48
2,TATATATATATATCCACACACATACAGATATTAAGA [CACACA_site4214],9.35 ± 0.15
3,TCCTTAAAATATATCACACATTTCGTTCATTTATAA [CACACA_site4346],8.71 ± 0.43
4,ATATATATATATATATGTACATATATATACATATAT [XGTACX_site6987],9.69 ± 0.38
5,ATTCACGTGTCTTAAAAAAAAAAAAAAGAAAAAAAG [CACACA_negctrl_site573],8.35 ± 0.46
6,ATAATATATATACAAACACACAATTGTGTCCACATT [CACACA_site1747],9.36 ± 0.46
7,TGTACATATATATAATATATATATCATCATATTTTC [CACACA_negctrl_site1750],8.77 ± 0.42
8,CTCATTTTGTTAATGGTGCAAAAAAAAAAAAAAAAA,8.39 ± 0.32
9,ATGAAAAAAAGACATGCATGTAAATATAAATTGCTT [TGCATGCA_site504],9.48 ± 0.42
10,CATTATAAGAGACACACACACATATATAAATATGTA [CACACA_site6621],9.63 ± 0.38
11,TATTTAAAACTATACACATGCATTATATAAAGATAT [TGCATGCA_site702],8.62 ± 0.4
12,AGTAAGAGGCATTAAGCATGCATATTATTATAAGCA [TGCATGCA_site237],9.07 ± 0.5
13,TTTCATTTTTGAAGGTGTACTTAAAATTTATGTAAT [XGTACX_site6671],8.41 ± 0.54
14,AAAATTTATTATCTATATAATAATATGAAACAAAAC [GTGCAC_negctrl_site731],8.58 ± 0.51
15,AAAAAAACATAAAATACACACAACCTTAAGAATGTA [CACACA_site3293],9.12 ± 0.38
16,TTATAAAATATATATACATGCACAAAATTATAAGTA [TGCATGCA_site294],8.88 ± 0.45
17,AATCAACATTTTTTTTGCTATTTTTTTTTTTAATTA [CACACA_negctrl_site891],8.53 ± 0.61
18,TATAATATAAAATATGCACACATTGGAATGGGAGAA [CACACA_site3746],9.1 ± 0.38
19,GACAATATTAAAACATGTACATGCATTTTATGAATA [XGTACX_site553],8.81 ± 0.42
20,TATTGTAAAGTGTCATTATTACGTTATATTATATAT [CACACA_negctrl_site98],8.89 ± 0.4
21,TAAAAAAAAGGAAATACATGCATCTACATATATATA [TGCATGCA_site500],8.73 ± 0.38
22,AAAAACTAACTGTATTGTACTCTCTTATAAATTCAC [XGTACX_site8967],8.7 ± 0.45
23,ATATAGGTAATAATAATACACACGGTGAAATATAGA [CACACA_site4040],9.16 ± 0.5

row,Sequence,gcPBM binding intensity (ln)
1,AAAAAAAAAATATATATATATATATAATATATATAT [TGCATGCA_negctrl_site329],9.09 ± 0.72
2,ATATATTTCATTTTTGTACACACAACGTTGGAGGGT [CACACA_site8999],9.15 ± 0.5
3,TATAATTTAAAATACACACACATATATATAATATAT [CACACA_site2000],9.31 ± 0.24
4,TCCAAATGAAAAAATTGTACATATTTTATCATATAT [XGTACX_site6159],8.55 ± 0.52
5,TAAATACATTTATATACACACCTATATATATATATA [CACACA_site5137],9.355 ± 0.078
6,ATAAGAAATTTCATACGTACATAAATAAATATATAT [XGTACX_site2932],8.78 ± 0.42
7,TATAAAGACACGTACACACACTAAGTATATCCAATA [CACACA_site6855],9.46 ± 0.33
8,GTATGATGTGAACATTGTACGAATGAATATATCTAA [XGTACX_site3789],8.8 ± 0.38
9,ATATAAGTATACACATGTACATATTTCTTATGTATA [XGTACX_site2854],8.87 ± 0.43
10,AAAAAATTTATAAAAGCACACAAAATAAAAAAAAAT [CACACA_site8420],8.95 ± 0.54
11,AAAATGTTAAATATTAAATATGAAACAAAAAAAAAA [GTGCAC_negctrl_site211],8.49 ± 0.53
12,AAAATTATTTTTATGTGTACTTATTTATTATTTATA [XGTACX_site6665],8.79 ± 0.46
13,TTGTATTCCTTTTACAACTACCATGAAGAGAATTTT [CACACA_negctrl_site1286],8.38 ± 0.3
14,TGATAACCTAATAATACACACACATGAATATATATA [CACACA_site8226],9.38 ± 0.32
15,TAAAAAAAATAGCATACACACATATATACATATATA [CACACA_site658],8.98 ± 0.41
16,GTCGCCAAAAGGTGTACACATAATGCATTATCATAA [CACACA_site6112],8.97 ± 0.47
17,TACACATAATATAATGCATGTGTGATGTATGTTTAA [TGCATGCA_site697],8.98 ± 0.31
18,ATTAAAAAATTATTCACACAAAATAAAAAAATGAAA [CACACA_site4918],8.59 ± 0.52
19,ATATTTAGGATTATCTGTACATAATATGTTTAATTA [XGTACX_site3426],8.58 ± 0.47
20,AAATATTTGGAGAAATGTACATATTATAAATATATT [XGTACX_site6885],8.87 ± 0.42
21,CTAGGAAATTATATGGGTACTCATATTCATAAAAAA [XGTACX_site1846],8.53 ± 0.53
22,AAAAAAAACGCACATACACACACACCCATATATATA [CACACA_site9118],10.13 ± 0.028
23,AAAAAAAAAAAAAAGGTGCAAATAAATTAACCTTAT,8.56 ± 0.57

row,Sequence,gcPBM binding intensity (ln)
1,TTTTATTTTTTCCGACGTACATCCATTATATATAAT [XGTACX_site4469],8.89 ± 0.49
2,AAATGTTAAAATGACAGTACATATATAAAAAAAAAA [XGTACX_site3936],8.8 ± 0.59
3,AAAAAAAGAATGTGAACACACACATTGAATATAATT [CACACA_site8341],9.23 ± 0.5
4,AAGAACAGAACGTACACACACATATATATATATATA [CACACA_site3457],10.2 ± 0.28
5,AATTATTTACCCTATACACACAAAACCCACTAAAAA [CACACA_site4801],9.28 ± 0.29
6,TATAAATAAATACATACACACACATACATATATATA [CACACA_site9024],9.66 ± 0.014
7,AATCATATGAAAAATACATGCGCATGGATACCTTTA [TGCATGCA_site224],9.14 ± 0.35
8,TACTTATGTGCATACCTACACACTTACATATATATA [CACACA_site2975],9.07 ± 0.45
9,GATGATGTTTATTTGTGTACATATTAATACTTAATA [XGTACX_site1902],8.88 ± 0.35
10,TTTTCTTTTTTTTATTGTACTTATAAAAATAAATAA [XGTACX_site3498],8.14 ± 0.52
11,ATAAAATCAAAATATACACACAAGGGGGAAAATCAA [CACACA_site2809],9.2 ± 0.45
12,GCATATATCAAATATCGTACATTTTTTAAATTAAAA [XGTACX_site3994],8.4 ± 0.35
13,ATAGGACATGTATCCAGTACATATTTAAAAAAAATA [XGTACX_site88],8.79 ± 0.6
14,TTTGTAAGTCTTTGTTGTACTCAATAGAATGAAGAA [XGTACX_site8930],8.29 ± 0.4
15,GCATCCCTTTTTATGTGTACATACAAAGGCAATTAC [XGTACX_site6977],8.99 ± 0.56
16,AAAATATAAATCTAAGCATGCAAAAAAAATTTATAA [TGCATGCA_site1008],8.84 ± 0.38
17,TATTGTTTTAAAGAGACATGCAATATATATTATTCC [TGCATGCA_site752],8.51 ± 0.42
18,TAATATTATAGATAAACACACATACACATGTAAATA [CACACA_site7049],9.01 ± 0.29
19,AAATGAAATTTGTATACACACAAATATATATATATA [CACACA_site836],9.36 ± 0.31
20,TATAAGCAAAAACACACACACATATATATATATATA [CACACA_site3804],10.2 ± 0.23
21,AATAATAATAGTAATATGTACATATATATATATATA [TGCATGCA_negctrl_site542],9.515 ± 0.092
22,TTATTTAAAAAAAAGTGTACCCATATATTATAAATC [XGTACX_site8374],8.5 ± 0.51
23,AATTTATATTTTCGTAGTACGTATTTTATTCTTTTG [XGTACX_site4162],8.97 ± 0.49

row,Sequence,gcPBM binding intensity (ln)
1,TATAAGGTGTCCTATACACACTCCAATAGATATATA [CACACA_site7066],8.69 ± 0.45
2,CTGAACCCGTTATGGTGTACATAAAATAAGACACAG [XGTACX_site3484],8.89 ± 0.62
3,ATTACATGCAATATATGTACGTAATATATATATATA [XGTACX_site2300],9.16 ± 0.085
4,TAATCTTTCGTACATGTACACACAGAAAAAAAAAAA [CACACA_site8798],8.86 ± 0.42
5,TGCATGCATTATCATAGTACATATAATGTTGTATAA [XGTACX_site2775],8.82 ± 0.4
6,ATTATTAAGTTTCACAAGAACATTGTTAACAATTTT [CACACA_negctrl_site1128],8.62 ± 0.52
7,TATTAAGTATTTTACGTACACACTTATAAATGTACA [CACACA_site3885],8.72 ± 0.42
8,AATAATCATGATCAAAGTACTTATGAATACCAAAAA [XGTACX_site2572],8.97 ± 0.57
9,AAAAAAAAAAAGTACACACATACATATAAATATATA [CACACA_site1809],9.04 ± 0.46
10,AAAGACGCAAAATTGGTGCGCTGCTTTTAGCATTTT,8.89 ± 0.36
11,ACAGAATATTTAATTCAACACACATACATATTTATT [CACACA_site8734],8.92 ± 0.49
12,ATTTATATCCTTAAACGTACATTGTATTGTATTTTA [XGTACX_site6080],8.91 ± 0.52
13,GAAAAAATTTTATGGTGTACTTTATTTATTTATATA [XGTACX_site6323],8.64 ± 0.45
14,GAAATATTTAGACACACACACAAACATATAAATATA [CACACA_site6980],9.84 ± 0.35
15,ATGTTGTGTATATATACACACATACATATATATATA [CACACA_site8461],9.44 ± 0.2
16,GATTATATTATATATTAAATATAAATATGTATTATA [TGCATGCA_negctrl_site66],8.39 ± 0.47
17,AATGGAAATGTAAAATGTACAGGACGCACACACATA [XGTACX_site7788],9.57 ± 0.4
18,AAAAAAAATTAAAATAAATTAAAAAGTAATTATATA [GTGCAC_negctrl_site615],8.22 ± 0.56
19,AATGAGAAGGACTGCACACTAAAATGGAAGGAGAAA [CACACA_site1575],9.15 ± 0.45
20,ATATATAATATTTTTATTTTTATTTTTTTTTTATGA [TGCATGCA_negctrl_site577],8.34 ± 0.49
